Measured values reported in PubChem BioAssay AID1345082 (National Center for Advancing Translational Sciences (NCATS), 2018).
Among all 94,000 compounds or so, about 4,000 (4.3%) were called active. The inconclusive results got no clear call from the source; some entries with a clear call stand among them for comparison. Calls follow the shape of the dose curve; as a rule, active = well fitted inhibition curve with a large enough effect; inconclusive = small, poorly fitted or top-dose-only effect; inactive = no such curve, though single readings can be large or run the other way. Where the call is inconclusive, the potency comes from a doubtful curve fit.

experiment: Cytotoxic Profiling in NIH 3T3 Cell Line of Diverse Libraries Using Quantitative High-Throughput Screening; conditions: NIH 3T3 viability, CellTiter-Glo ATP luminescence, 48-72 h; series mostly up to 96.7 µM; activity change, negative = cytotoxicity: at the top concentration; also: nearly all actives have a fitted effect of over 55% in size
Procedure, shortened: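 Cells were seeded at 400 per well, treated with pin-transferred compound, and kept 48 or 72 hr at 37 °C before CellTiter-Glo addition and luminescence imaging of cellular ATP.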
% is scaled to controls: 0 for no effect and ±100 for the full control effect; potency is read from the fitted curve at half-maximal effect; tags tell the direction and shape of the fitted curve.

| SMILES | activity change, negative = cytotoxicity | outcome | Potency |
| --- | --- | --- | --- |
| O=C(NCc1ccc(F)cc1)[C@H]1CN2CCC1C[C@@H]2Cn1cc(CO)nn1 (stereo not given in full) | inactive: -25.9% [at 174 µM] | – | – |
| Cc1cc(CN2CCC3(CC(C(C)C)=NO3)C2)no1 (stereo not given) | – | inactive [at 138 µM] | – |
| COCC1CN(C2CCC2)CC12CCN(Cc1cccnc1)CC2 (stereo not given) | inactive: -13.4% | – | – |
| O=[S+]1([O-])NC2(CCN(Cc3cccs3)C2)COc2ccncc21 (stereo not given) | inactive: -14.7% | – | – |
| CC1CCN(C[C@H]2CN3CC[C@H]2C[C@@H]3CNC(=O)Nc2ccccc2)CC1 | – | – | inconclusive: 112 µM [inhibitor, single point] |
| CCOC(=O)[C@H]1CN(C(=O)NC2CCCC2)[C@]2(C)C(=O)N(CCOC(C)=O)c3ccccc3[C@H]12 | – | – | inconclusive: 31.6 µM [inhibitor, partial curve, poor fit] |
| COc1ccc(C(=O)N2[C@H]3CC[C@@H]2c2cnc(-c4ccc(F)cc4)nc2C3)cc1F | inactive: -11.2% | – | – |
| COc1ccccc1-c1cc([C@H]2CN3CC[C@H]2C[C@@H]3COC(=O)Nc2ccc(C(C)=O)cc2)n(C)n1 | – | – | inconclusive: 89.1 µM [inhibitor, partial curve, poor fit] |
| Cc1nc(-c2ccccc2)cc([C@H]2CN3CC[C@H]2C[C@@H]3CNC(=O)N2CCOCC2)n1 | – | – | active: 89.1 µM |
| COc1ccccc1-c1cc([C@H]2CN3CC[C@H]2C[C@@H]3COC(=O)Nc2ccc(C(C)(C)C)cc2)n(C)n1 | – | – | active: 22.4 µM |
| COc1cccc(CC(=O)N2CCC3(CC2)NCc2ccccc2-n2ccnc23)c1 | – | – | inconclusive: 44.7 µM [inhibitor, partial curve, poor fit] |
| Cc1nc(-c2ccccc2)cc([C@H]2CN3CC[C@H]2C[C@@H]3CNC(=O)NC(C)C)n1 | – | – | inconclusive: 112 µM [inhibitor, partial curve, poor fit] |
| O=C(N1CCC2(CC1)NCc1ccccc1-n1ccnc12)C1(c2ccccc2)CC1 | – | – | inconclusive: 50.1 µM [inhibitor, partial curve, poor fit] |
| COc1ccc(N2CC3CCC(C2)N3CC(F)(F)F)cn1 | – | inactive | – |
| Cc1ccc(CC(=O)N2CCN(C3CCN(Cc4cccnc4)C3=O)CC2)cc1 (stereo not given) | – | – | inconclusive: 79.4 µM [inhibitor, partial curve, poor fit] |
| COCCC(=O)Nc1ccc2n(c1=O)C[C@H]1C[C@@H]2CN(CCCc2ccccc2)C1 | – | – | inconclusive: 28.2 µM [inhibitor, full curve] |
| O=C1NCC2(CCCN(Cc3cc(=O)c4cccc(F)c4[nH]3)C2)O1 (stereo not given) | – | inactive | – |
| O=C(CC1CCCC1)N1[C@H]2CC[C@@H]1c1cnc(-c3ccccc3)nc1C2 | inactive: -26.5% | – | – |
| O=C(Nc1ccccc1)N1C[C@@H]2C[C@H](C1)c1c(-c3ccc(Cl)cc3)ccc(=O)n1C2 | – | – | inconclusive: 112 µM [inhibitor, single point] |
| O=C1NC2(Cc3ccccc31)CN(C1COC1)C2 | – | inactive [at 174 µM] | – |

| SMILES | activity change, negative = cytotoxicity | outcome | Potency |
| --- | --- | --- | --- |
| COc1cc2c(cc1OCc1ccccc1)N(C(=O)c1ccn(C)n1)CC21CCN(C)CC1 | – | – | inconclusive: 70.8 µM [inhibitor, single point] |
| Cc1ncc2c(n1)C[C@@H]1CC[C@H]2N1C(=O)c1ccnn1C | – | inactive | – |
| c1cc2nc(C3CCCNC3)[nH]c2cn1 (stereo not given) | – | – | inactive |
| CC(C)c1ccc(NC(=O)OC[C@H]2C[C@@H]3CCN2C[C@@H]3c2cc(C3CCCC3)nc(-c3ccncc3)n2)cc1 | – | – | active: 4.47 µM |
| CC(C)CN1Cc2ccccc2-n2ccnc2C12CCN(C(=O)c1ccoc1)CC2 | – | – | inconclusive: 50.1 µM [inhibitor, partial curve, poor fit] |
| CN1CCN(C(=O)Cc2c[nH]c3ncc(-c4ccccc4F)cc23)CC1 | – | – | inconclusive: 112 µM [inhibitor, single point] |
| CN1CCCCCCN(Cc2ccccn2)[C@H]2CCC[C@H]2C1=O | – | – | inconclusive: 50.1 µM [inhibitor, partial curve, poor fit] |
| O=C(NC[C@H]1C[C@@H]2CCN1C[C@@H]2CN1CCC(Cc2ccccc2)CC1)c1ccccc1 | – | – | active: 25.1 µM |
| COc1ccc(NC(=O)NC[C@H]2C[C@@H]3CCN2C[C@@H]3CN2CCN(c3ccccc3OC)CC2)cc1 | – | – | inconclusive: 70.8 µM [inhibitor, partial curve, poor fit] |
| Cc1nc(-c2cccs2)cc([C@H]2CN3CC[C@H]2C[C@@H]3CNC(=O)c2ccco2)n1 | – | – | inconclusive: 126 µM [inhibitor, partial curve, poor fit] |
| Cc1cc(C)c2[nH]c(C(=O)N3CCC(C#N)(c4ccccc4)CC3)c(C)c2c1 | – | – | inconclusive: 50.1 µM [inhibitor, partial curve, poor fit] |
| COc1cc2c(cc1CCc1ccccc1)N(C(=O)[C@@H]1CCCO1)CC21CCN(C(C)=O)CC1 | – | – | inconclusive: 50.1 µM [inhibitor, partial curve, poor fit] |
| CCOC(=O)[C@H]1CN(C(=O)OCC(C)C)[C@]2(C)C(=O)N(CCOC)c3ccccc3[C@H]12 | – | – | inconclusive: 14.1 µM [inhibitor, partial curve, poor fit] |
| C=C[C@H]1CN2CC[C@H]1C[C@@H]2CNC(=O)Nc1cccc(SC)c1 | – | – | inconclusive: 100 µM [inhibitor, partial curve, poor fit] |
| CC(=O)c1cccc(NC(=O)OC[C@H]2C[C@@H]3CCN2C[C@@H]3c2cc(C3CCCC3)nc(-c3ccncc3)n2)c1 | – | – | inconclusive: 20 µM [inhibitor, full curve, poor fit] |
| Cc1ccc(S(=O)(=O)NC[C@H]2C[C@@H]3CCN2C[C@@H]3CN(C)CCc2ccccn2)cc1 | inactive: -14.3% | – | – |
| COc1ncc(-c2cc3c(cc2OC)C2(CCN(C(C)=O)CC2)C(=O)N3)cn1 | – | – | active: 44.7 µM |
| COc1ccc(-c2cc3c(cn2)CN(C)CCN3)cc1OC | – | – | inconclusive: 100 µM [inhibitor, partial curve, poor fit] |
| COc1ccc2c(c1)C1(CCN(S(=O)(=O)c3cccc(Cl)c3)C1)C(=O)N2C (stereo not given) | – | – | inconclusive: 50.1 µM [inhibitor, partial curve, poor fit] |
| CC(C)CCN1CCN2C(=O)NC[C@H]2C1 | inactive: -3.96% [at 279 µM] | – | – |
